According to publication PMC4336329 (PLoS ONE, 2015):
The campaign covered roughly 310,000 compounds. About 14,000 (4.5%) showed an effect of 50% or more. Effects have a minus sign here. Some of the results follow.

These molecules were tested against human ether-à-go-go-related gene (hERG) potassium channel (human, UniProt Q12809) (assay: primary screen, population patch clamp on CHO cells stably expressing hERG).
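Also: peak tail current of the secondary pulse compared with the same well before compound.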

human ether-à-go-go-related gene (hERG) potassium channel, sequence (Q12809 whole entry, looked up): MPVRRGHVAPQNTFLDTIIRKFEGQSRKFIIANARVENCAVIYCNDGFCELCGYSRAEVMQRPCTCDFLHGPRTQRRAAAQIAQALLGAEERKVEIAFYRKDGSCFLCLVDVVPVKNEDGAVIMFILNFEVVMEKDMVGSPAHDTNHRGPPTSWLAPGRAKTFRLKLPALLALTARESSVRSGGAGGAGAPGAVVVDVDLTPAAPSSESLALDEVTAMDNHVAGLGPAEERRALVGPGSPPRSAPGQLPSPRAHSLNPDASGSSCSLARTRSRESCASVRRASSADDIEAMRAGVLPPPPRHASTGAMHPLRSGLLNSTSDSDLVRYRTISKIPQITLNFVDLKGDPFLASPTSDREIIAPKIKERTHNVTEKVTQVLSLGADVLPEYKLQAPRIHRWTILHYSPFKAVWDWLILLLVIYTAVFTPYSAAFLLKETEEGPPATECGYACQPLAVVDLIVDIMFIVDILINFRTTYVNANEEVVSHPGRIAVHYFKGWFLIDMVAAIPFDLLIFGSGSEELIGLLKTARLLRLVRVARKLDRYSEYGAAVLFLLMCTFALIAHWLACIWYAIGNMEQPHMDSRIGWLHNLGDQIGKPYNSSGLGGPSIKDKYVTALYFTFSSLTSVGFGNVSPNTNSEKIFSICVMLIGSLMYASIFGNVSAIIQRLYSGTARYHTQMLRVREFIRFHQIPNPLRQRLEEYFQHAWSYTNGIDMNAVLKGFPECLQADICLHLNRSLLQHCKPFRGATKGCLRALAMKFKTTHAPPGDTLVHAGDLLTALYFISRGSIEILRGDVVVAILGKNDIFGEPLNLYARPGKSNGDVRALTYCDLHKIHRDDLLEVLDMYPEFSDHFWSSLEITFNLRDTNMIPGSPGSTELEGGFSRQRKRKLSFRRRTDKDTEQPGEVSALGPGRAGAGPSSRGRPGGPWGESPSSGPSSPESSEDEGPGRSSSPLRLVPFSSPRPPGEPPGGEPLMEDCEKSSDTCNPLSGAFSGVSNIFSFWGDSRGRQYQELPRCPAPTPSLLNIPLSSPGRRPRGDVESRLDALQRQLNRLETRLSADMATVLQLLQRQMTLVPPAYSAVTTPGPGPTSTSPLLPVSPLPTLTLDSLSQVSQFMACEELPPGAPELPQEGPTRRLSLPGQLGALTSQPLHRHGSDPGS

Compound | hERG current change (%, negative = inhibition) at 10uM
COc1cc(C(=O)OCC(=O)N2CC(C)OC(C)C2)cc(OC)c1OC (stereo not drawn) | 33%
Cc1ccc(CNc2ccccc2C(=O)O)s1 | 12.7%
O=C(NNc1ccccn1)C(=O)NNS(=O)(=O)c1ccc(F)cc1 | 12.5%
O=C(COc1ccccc1)NC1CCS(=O)(=O)C1 (stereo not drawn) | 18.5%
O=C1OC(c2ccccc2)c2ccccc21 (stereo not drawn) | 12.8%
O=C(COC(=O)CCC(=O)c1cccs1)Nc1cc(S(=O)(=O)N2CCOCC2)ccc1Cl | -53.5%
COc1cc(/C=C/C(=O)c2ccc(Cl)s2)cc(OC)c1O | -74.4%
Cc1ccc(N(CC(=O)N2CCOCC2)S(=O)(=O)c2ccccc2)cc1 | -2.35%
CC(C)CC(c1nnnn1CC1CCCO1)N1CCN(c2cccc(Cl)c2)CC1 (stereo not drawn) | -3.77%
CCOC(=O)C1=C(C)NC2=C(C(=O)c3ccccc32)C1c1ccc(O)cc1 (stereo not drawn) | 13.3%
CCCCC(=O)Nc1ccc(NC(=O)c2cnccn2)cn1 | 24.7%
CCCN(C(=O)COC(=O)CCOc1ccccc1)c1c(N)n(Cc2ccccc2)c(=O)[nH]c1=O | -8.17%
Cc1ccccc1CSc1nc(-c2ccccc2)cc(=O)[nH]1 | 9.32%
CCOC(=O)CN1C(=O)COc2ccc(C(C)(C)C)cc21 | -18.6%
COc1cc(/C=C(\C#N)C(=O)Nc2ccccc2C(=O)O)cc(Cl)c1OC | 39.9%
O=C(O)Cn1c(CC(=O)N2CCCC2)nc2ccccc21 | 5.45%
COc1ccc(CCNC(=O)CN(c2ccccc2)S(C)(=O)=O)cc1OC | -8.06%
O=C(O)COc1ccc(-c2nnn(Cc3ccccc3F)n2)cc1 | 16.9%
O=C(/C=C/c1cccs1)NNC(=O)c1ccccc1 | 9.29%
COc1ccccc1OCC(=O)Nc1cccc(C(=O)N2CCOCC2)c1 | -0.619%
Cc1ccc(S(=O)(=O)N2CCN(C(C(=O)Nc3ccc(F)cc3)c3ccccc3)CC2)cc1 (stereo not drawn) | -3.54%
Cc1cc(C(=O)CSc2nnc(-c3ccncc3)n2-c2ccccc2)c(C)n1C | -26.6%

Compound | hERG current change (%, negative = inhibition) at 10uM
O=C1c2cccc([N+](=O)[O-])c2C(=O)N1C1CCCCC1 | 12.7%
Cc1ccc2oc(-c3cc(NC(=O)c4ncn[nH]4)ccc3O)nc2c1 | 20.3%
Cc1cc(SCC(=O)c2cc(C)n(C)c2C)nc2ccccc12 | 10.9%
COc1ccccc1C1CCN(Cc2c(C)[nH]c3ccccc23)CC1 | -64.4%
COCC1CCN(Cc2nc(-c3cccs3)no2)C1 (stereo not drawn) | -0.482%
CC(C)CCNC(=O)C(c1ccc(O)cc1)N(Cc1cccs1)C(=O)C1COc2ccccc2O1 (stereo not drawn) | 5.53%
Cc1ccsc1C(=O)Nc1ccc(S(=O)(=O)N2CCOCC2)cc1 | 0.841%
COc1ccccc1NC(=O)Nc1c(C)nn(C)c1C | 9.61%
COc1ccc([N+](=O)[O-])cc1N(CC(=O)N(C)C)S(C)(=O)=O | 17.3%
COc1ccc(CCNc2nc(C)cc(C)n2)cc1OC.Cl | 17.4%
CCOC(=O)c1ccc(CSC(=N)N)o1 | 17.2%
Cc1cc(C)nc(CCNC(=O)C2CCC(=O)N(Cc3ccccc3F)C2)n1 (stereo not drawn) | 15.7%
Cl.N=c1n(CCO)c2ccccc2n1Cc1ccccc1 | -25.1%
Cc1cccc(C)c1NC(=O)C(=O)NCC1CCCN1S(=O)(=O)c1ccccc1 (stereo not drawn) | -24.3%
CCN(CC)C(=O)CSc1nc2ccccc2c(=O)n1CC1CCCCC1 | -61%
COC(=O)C1=C(c2ccc(-c3ccccc3)c(F)c2)C[C@@H]2CC[C@H]1N2C(=O)N1CCC(O)CC1 | -9.71%
O=C(CCC1COc2ccccc2O1)NC1CCCCC1 (stereo not drawn) | -8.97%
Cc1onc(-c2c(F)cccc2Cl)c1C(=O)OCn1nnc2ccccc2c1=O | 1.82%
COc1ccc(NC(=O)COC(=O)Cn2c(C)nc3ccccc32)cc1OC | 13.3%
COc1ccc2c(c1OC)C(=O)N(c1nc(SC)n[nH]1)C2=O | 18.3%
Cc1cccc(NC(=S)NNC(=O)c2ccco2)c1 | 6.66%
CCOc1c2ccc(C(=O)NCc3ccc(C)cc3)cc2nn1CCOC | 9.13%

Compound | hERG current change (%, negative = inhibition) at 10uM
CCCn1c(C(O)c2cc(OC)ccc2OC)nc2ccccc21 (stereo not drawn) | -2.45%
COc1cc(NC(=O)COC(=O)CNC(=O)C23CC4CC(CC(C4)C2)C3)cc(OC)c1 | -6.11%
Brc1ccc(OCCOCCOc2cccc3cccnc23)cc1 | -6.05%
CN(C)Cc1c(C(=O)N/N=C/c2cccnc2)nnn1-c1nonc1N | 12.3%
CCCCSc1nc(C)[nH]c1[N+](=O)[O-] | 12.4%
O=C(CNC(=O)c1ccc(Cl)cc1)OCn1nnc2ccccc2c1=O | 9.92%
Clc1cccc(CNCCc2c[nH]c3ccccc23)c1.O=C(O)C(=O)O | -14%
CCCc1cc(=O)n2[nH]c(C)nc2n1 | 8.13%
Cc1ccc(NC(=O)N2CCC(C(N)=O)CC2)cc1 | 5.62%
COCCn1c(SCC(=O)NCCc2ccccc2)nc2c([nH]c3ccccc32)c1=O | 12.3%
COc1ccccc1NC(=O)NC1(C(=O)N2CCC(C)CC2)CCCCC1 | 18.3%
O=[N+]([O-])c1ccc(-c2nn(-c3ccccc3)cc2/C=N/n2c(-c3cccs3)n[nH]c2=S)cc1 | 20.3%
CCOC(=O)C1CSC(CC(=O)Nc2ccc(OCC)cc2)C(=O)N1 (stereo not drawn) | -5.69%
O=C1CC(C(=O)N2CCc3ccccc32)CN1c1ccc(F)cc1 (stereo not drawn) | -55.3%
CCOC(=O)C1=C(C)Nc2[nH]c(=O)[nH]c(=O)c2C1c1cccs1 (stereo not drawn) | -3.78%
NS(=O)(=O)c1ccc(CCNC(=O)Cc2ccc(S(=O)(=O)N3CCCC3)s2)cc1 | 29.9%
COc1ccc(-n2c(=O)cc(N3CCN(c4ccccc4F)CC3)[nH]c2=O)cc1 | -5.05%
COc1ccccc1CNC(=O)c1ccc2c(=O)n3c(nc2c1)CCCCC3 | -21.5%
O=c1[nH]c(CN2CCN(Cc3ccccc3)CC2)nc2scc(-c3ccccc3)c12 | -37.5%
CC(=O)Nc1ccc(S(=O)(=O)NNC(=O)COc2cccc3ccccc23)cc1 | -0.107%
CNC[C@@H](CC1CCCCC1)NC[C@H](CC(C)C)NCCc1cccc(C(F)(F)F)c1 | -6.97%
COc1cc([C@@H]2CC=C(C(=O)O)[C@H](c3ccc(Cl)cc3)N2S(=O)(=O)c2ccc(C)cc2)cc(OC)c1OC | -0.179%

Compound | hERG current change (%, negative = inhibition) at 10uM
O=C(/C=C/c1cccc([N+](=O)[O-])c1)N1CCN(Cc2ccccc2)CC1 | -47.5%
CCCOC(=O)c1ccc(NC(=O)c2nc3nc(C)cc(C)n3n2)cc1 | 0.372%
O=C(c1cc(COc2ccc(F)cc2Cl)on1)N1CCCCCCC1 | 0.909%
CC(=O)C(C(C)=O)C(NC(=O)c1cccnc1)(C(F)(F)F)C(F)(F)F | 1.66%
O=C(NC1CCCCC1)C1CCCN1C(=O)Nc1ccccc1 (stereo not drawn) | 16.7%
Cc1ccc(S(=O)(=O)Oc2ccc(/C=C3/N=C(c4ccccc4)OC3=O)cc2)cc1 | -1.71%
O=C(OCC1OC(n2cc(Br)c(=O)[nH]c2=O)C(Br)C1O)c1ccccc1 (stereo not drawn) | 8.3%
COCCn1cnnc1SCC(=O)Nc1sccc1C(N)=O | -2.66%
O=C(/C=C/c1ccc(N2CCCCC2)c([N+](=O)[O-])c1)c1ccc(S(=O)(=O)N2CCCC2)cc1 | 10.3%
CC1CCC2(CC1)NC(=O)N(CC(=O)c1cccn1C)C2=O (stereo not drawn) | -3.51%
O=C(O)Cn1nnc(COc2ccccc2)n1 | 12.2%
Cc1cc([N+](=O)[O-])nn1CCCC(=O)Nc1cccc(Cl)c1Cl | 0.71%
NS(=O)(=O)c1ccc(CCNC(=O)c2cc([N+](=O)[O-])ccc2N2CCOCC2)cc1 | -15.2%
CCN(CC)C(=O)CC(c1cc(OC)c(OC)c(OC)c1)c1c(OC)cc(OC)c2ccc(=O)oc12 (stereo not drawn) | 4.5%
Cc1ccc(NC(=O)Cn2c(=O)n(Cc3ccco3)c(=O)c3ccccc32)c(C)c1 | -9.09%
CC(C)(C)c1ccc(-c2nnc(N)s2)cc1 | 6.02%
COC(=O)C1CCN(S(=O)(=O)CCNC(=O)c2ccc3c(c2)OCO3)CC1 | 3.6%
O=C(NCc1cnc2ccccn12)C1CCC(=O)N(Cc2cccc(F)c2)C1 (stereo not drawn) | 19.6%
CC(C)CC(=O)N1CCN(Cc2ccccc2[N+](=O)[O-])CC1.O=C(O)C(=O)O | -7.35%
CSc1ccccc1NC(=O)COc1ccc(S(=O)(=O)N2CCCC2)cc1 | -10.4%
CCOc1ccc(CN(C)CC(=O)NCc2ccccc2Cl)cc1 | -89.1%
